Our source for the binding signal values is PMC5700166.

Assay in all cases: protein-binding microarray (PBM)
Common to all, as to details: PBM: ~300 nM protein, 6 mM HEPES pH 7.8, 80 mM KCl, 0.5 mM EDTA, 0.5 mM EGTA, 6% glycerol, 35 ng/ul poly-dIdC, 1% milk, 1 h, room temperature; Ap Aiptasia and Nv Nematostella (sea anemones) / Co Capsaspora / Aq Amphimedon (sponge) / Dm Drosophila / Hu human; RHD is the Rel homology domain; high values mean tight binding; most listed sequences are background and not binding sites; double strand, one strand shown

The target of assay [1] is T1, GST-Ap-NF-kB RHD (UniProt A0A913YAJ5).
T1 sequence: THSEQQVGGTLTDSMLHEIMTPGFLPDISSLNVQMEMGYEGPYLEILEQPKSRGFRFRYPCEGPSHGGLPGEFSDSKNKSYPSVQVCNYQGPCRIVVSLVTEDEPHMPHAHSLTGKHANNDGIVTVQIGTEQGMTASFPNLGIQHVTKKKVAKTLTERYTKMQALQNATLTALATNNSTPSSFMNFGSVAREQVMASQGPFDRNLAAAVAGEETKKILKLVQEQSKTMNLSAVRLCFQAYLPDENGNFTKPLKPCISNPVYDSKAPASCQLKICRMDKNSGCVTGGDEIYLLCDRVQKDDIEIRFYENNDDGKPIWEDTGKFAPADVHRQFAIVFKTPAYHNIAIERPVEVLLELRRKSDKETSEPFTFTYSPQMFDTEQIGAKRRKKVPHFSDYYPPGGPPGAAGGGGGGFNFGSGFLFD

In assay [2] the target is T2, GST-Nv-NF-kB (Cys allele) (UniProt E5G601).
T2 sequence: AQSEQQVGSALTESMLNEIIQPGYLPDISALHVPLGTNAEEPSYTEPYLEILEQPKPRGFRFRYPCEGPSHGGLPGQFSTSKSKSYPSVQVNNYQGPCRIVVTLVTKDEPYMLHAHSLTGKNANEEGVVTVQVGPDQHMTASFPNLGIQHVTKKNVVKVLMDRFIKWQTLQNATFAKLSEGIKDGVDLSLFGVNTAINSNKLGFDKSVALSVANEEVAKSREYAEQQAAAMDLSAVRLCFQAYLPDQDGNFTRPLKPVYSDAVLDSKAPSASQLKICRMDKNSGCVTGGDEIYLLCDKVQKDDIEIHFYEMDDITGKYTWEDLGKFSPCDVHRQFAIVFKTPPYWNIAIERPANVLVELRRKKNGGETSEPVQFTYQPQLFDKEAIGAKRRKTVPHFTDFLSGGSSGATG

The target in assay [3] is T3, GST-Co-NF-kB (UniProt F1ARL5).
T3 sequence: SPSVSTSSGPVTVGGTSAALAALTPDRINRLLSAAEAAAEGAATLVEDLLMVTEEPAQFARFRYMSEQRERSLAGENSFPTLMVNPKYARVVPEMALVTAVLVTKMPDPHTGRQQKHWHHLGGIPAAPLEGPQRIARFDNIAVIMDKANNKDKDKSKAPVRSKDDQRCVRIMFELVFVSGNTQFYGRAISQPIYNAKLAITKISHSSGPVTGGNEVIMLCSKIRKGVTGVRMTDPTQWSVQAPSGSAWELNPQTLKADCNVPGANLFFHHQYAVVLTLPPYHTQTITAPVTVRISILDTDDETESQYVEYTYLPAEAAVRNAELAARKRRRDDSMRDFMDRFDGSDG

Assay [4] deals with T4, GST-Dm-Relish (UniProt Q94527).
T4 sequence: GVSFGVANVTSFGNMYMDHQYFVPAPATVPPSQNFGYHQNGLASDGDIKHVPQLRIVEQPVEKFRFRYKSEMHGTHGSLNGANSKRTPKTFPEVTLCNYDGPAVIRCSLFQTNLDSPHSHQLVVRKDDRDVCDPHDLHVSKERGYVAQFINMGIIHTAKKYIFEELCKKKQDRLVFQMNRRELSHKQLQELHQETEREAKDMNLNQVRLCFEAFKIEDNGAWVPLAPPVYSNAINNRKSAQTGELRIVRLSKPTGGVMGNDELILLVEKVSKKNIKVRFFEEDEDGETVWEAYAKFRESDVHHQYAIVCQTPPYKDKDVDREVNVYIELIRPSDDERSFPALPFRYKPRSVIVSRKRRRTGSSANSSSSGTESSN

Assay [5] addresses T5, GST-Aq-NF-kB (UniProt A9Y5G7).
T5 sequence: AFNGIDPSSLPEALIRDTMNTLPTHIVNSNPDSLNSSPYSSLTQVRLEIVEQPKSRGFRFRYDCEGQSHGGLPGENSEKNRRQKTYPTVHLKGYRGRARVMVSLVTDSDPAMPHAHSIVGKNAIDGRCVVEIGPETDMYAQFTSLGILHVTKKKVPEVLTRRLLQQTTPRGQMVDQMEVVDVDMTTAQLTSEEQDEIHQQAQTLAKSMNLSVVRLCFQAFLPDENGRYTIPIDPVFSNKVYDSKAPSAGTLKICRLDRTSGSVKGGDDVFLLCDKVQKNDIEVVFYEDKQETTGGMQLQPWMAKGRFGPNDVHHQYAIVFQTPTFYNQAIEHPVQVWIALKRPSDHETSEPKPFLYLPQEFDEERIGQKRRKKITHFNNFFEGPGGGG

The list shows a part of the results, in another mix than the full data. The list includes weakly bound sequences.

Turning to “CCGATTAACATCAGCGTGGGAACTGATGTTAATCGGGTCTTGATTCGCTTGACGCTGCTG”, the binding signal in assay [1] is -0.135 z-score; in assay [2], 0.62 z-score; in assay [3] it was 0.726 z-score; in assay [4], 0.103 z-score; in assay [5] it was 0.354 z-score.
“CCGATTAACATCAACGAAATTCCTGATGTTAATCGGGTCTTGATTCGCTTGACGCTGCTG”: the binding signal was -0.0377 z-score in assay [1]; -0.832 z-score in assay [2]; 0.202 z-score in assay [3]; 0.181 z-score in assay [4]; 0.0829 z-score in assay [5].
For the sequence “CCGATTAACATCATGTACGCTGCTGATGTTAATCGGGTCTTGATTCGCTTGACGCTGCTG”, the binding signal in assay [1] was -0.0475 z-score; in assay [2] it was -0.354 z-score; in assay [3], -0.318 z-score; in assay [4], -0.521 z-score; in assay [5], -0.261 z-score.
On the same counts, the results for “CCGATTAACATCAGGTCAAAGCCTGATGTTAATCGGGTCTTGATTCGCTTGACGCTGCTG” are -0.926 z-score, -0.292 z-score, -1.83 z-score, -1.13 z-score and -0.634 z-score.
For the sequence “CCGATTAACATCAACTTCGCACCTGATGTTAATCGGGTCTTGATTCGCTTGACGCTGCTG”, the binding signal was 0.795 z-score in assay [1]; -0.318 z-score in assay [2]; 0.187 z-score in assay [3]; -0.461 z-score in assay [4]; -0.311 z-score in assay [5].
On to “CCGATTAACATCAACGTCCTGATTGATGTTAATCGGGTCTTGATTCGCTTGACGCTGCTG”, for which the binding signal is 0.145 z-score in assay [1]; 0.104 z-score in assay [2]; -0.0496 z-score in assay [3]; -0.12 z-score in assay [4]; -0.0908 z-score in assay [5].
Turning to “CCGATTAACATCACCGTTATTATTGATGTTAATCGGGTCTTGATTCGCTTGACGCTGCTG”, the binding signal in assay [1] was 0.411 z-score; in assay [2] it was -0.307 z-score; in assay [3], 0.725 z-score; in assay [4], 0.794 z-score; in assay [5] it was 0.371 z-score.
For “CCGATTAACATCAACCGTGGATATGATGTTAATCGGGTCTTGATTCGCTTGACGCTGCTG” the same measures were -0.287 z-score, -0.41 z-score, 0.397 z-score, -0.22 z-score and -0.291 z-score.
As for “CCGATTAACATCAAAATCCCCCTTGATGTTAATCGGGTCTTGATTCGCTTGACGCTGCTG”, the binding signal in assay [1] was 10.1 z-score; in assay [2], 10.7 z-score; in assay [3], 6.3 z-score; in assay [4], 10.2 z-score; in assay [5], 8.68 z-score.
Turning to “CCGATTAACATCAGTTCTGTCAATGATGTTAATCGGGTCTTGATTCGCTTGACGCTGCTG”, the binding signal in assay [1] is -0.082 z-score; in assay [2], 0.122 z-score; in assay [3], -0.188 z-score; in assay [4], -0.384 z-score; in assay [5], -0.271 z-score.
On to “CCGATTAACATCACTGGACAAATTGATGTTAATCGGGTCTTGATTCGCTTGACGCTGCTG”, for which the binding signal in assay [1] was -0.432 z-score; in assay [2] it was -0.0377 z-score; in assay [3], 0.266 z-score; in assay [4], 0.068 z-score; in assay [5], -0.195 z-score.
For “CCGATTAACATCATAGGCGTAGTTGATGTTAATCGGGTCTTGATTCGCTTGACGCTGCTG”, the binding signal is -0.0493 z-score in assay [1]; 0.032 z-score in assay [2]; -0.226 z-score in assay [3]; -0.515 z-score in assay [4]; -0.189 z-score in assay [5].
For the sequence “CCGATTAACATCACCATCTGACCTGATGTTAATCGGGTCTTGATTCGCTTGACGCTGCTG”, the binding signal is -0.036 z-score in assay [1]; -0.254 z-score in assay [2]; 0.118 z-score in assay [3]; -0.431 z-score in assay [4]; -0.104 z-score in assay [5].
“CCGATTAACATCATCCGTCCGCCTGATGTTAATCGGGTCTTGATTCGCTTGACGCTGCTG”: the binding signal was 0.037 z-score in assay [1]; -0.284 z-score in assay [2]; -0.429 z-score in assay [3]; -0.739 z-score in assay [4]; -0.381 z-score in assay [5].
As for “CCGATTAACATCAGGAAAATCTATGATGTTAATCGGGTCTTGATTCGCTTGACGCTGCTG”, the binding signal in assay [1] was 0.0778 z-score; in assay [2], -0.26 z-score; in assay [3], 0.684 z-score; in assay [4] it was 0.44 z-score; in assay [5] it was 0.555 z-score.
On to “CCGATTAACATCAGGATAGTCCATGATGTTAATCGGGTCTTGATTCGCTTGACGCTGCTG”, for which the binding signal is -0.115 z-score in assay [1]; -0.468 z-score in assay [2]; -0.92 z-score in assay [3]; -0.152 z-score in assay [4]; 0.68 z-score in assay [5].
Turning to “CCGATTAACATCATTTTACCTTGTGATGTTAATCGGGTCTTGATTCGCTTGACGCTGCTG”, the binding signal in assay [1] amounted to 0.431 z-score; in assay [2] it was 0.932 z-score; in assay [3] it was 0.859 z-score; in assay [4], 0.549 z-score; in assay [5] it was 0.232 z-score.
As to “CCGATTAACATCAGGAAAGCCCCTGATGTTAATCGGGTCTTGATTCGCTTGACGCTGCTG”, the binding signal in assay [1] came out at 7.03 z-score; in assay [2] it was 9.89 z-score; in assay [3] it was 1.05 z-score; in assay [4], 8.43 z-score; in assay [5] it was 9.59 z-score.
As for “CCGATTAACATCAGAAATTCCAATGATGTTAATCGGGTCTTGATTCGCTTGACGCTGCTG”, the binding signal in assay [1] was -0.0239 z-score; in assay [2], -0.886 z-score; in assay [3], 0.587 z-score; in assay [4] it was 0.0329 z-score; in assay [5] it was 0.303 z-score.
In the case of “CCGATTAACATCAGCCTTGTCAGTGATGTTAATCGGGTCTTGATTCGCTTGACGCTGCTG”, the binding signal in assay [1] was -0.163 z-score; in assay [2], -0.272 z-score; in assay [3], 0.374 z-score; in assay [4], 7.05e-05 z-score; in assay [5], 0.0617 z-score.
“CCGATTAACATCAGCAACTGGCCTGATGTTAATCGGGTCTTGATTCGCTTGACGCTGCTG”: the binding signal in assay [1] is -0.392 z-score; in assay [2] it was -0.681 z-score; in assay [3], -0.552 z-score; in assay [4], -0.627 z-score; in assay [5], -0.721 z-score.
Consider “CCGATTAACATCACTAGGTAGTCTGATGTTAATCGGGTCTTGATTCGCTTGACGCTGCTG”, for which the binding signal in assay [1] was 0.775 z-score; in assay [2], 0.18 z-score; in assay [3], 0.576 z-score; in assay [4] it was -0.048 z-score; in assay [5], 0.153 z-score.
On the same counts, the results for “CCGATTAACATCACGCGCGAATCTGATGTTAATCGGGTCTTGATTCGCTTGACGCTGCTG” are 0.24 z-score, -0.666 z-score, -0.778 z-score, -0.268 z-score and -0.384 z-score.
On the same counts, the results for “CCGATTAACATCAGCTACCGCTTTGATGTTAATCGGGTCTTGATTCGCTTGACGCTGCTG” are -0.504 z-score, -0.392 z-score, 0.0444 z-score, -0.498 z-score and -0.793 z-score.
In the case of “CCGATTAACATCAAAATTCCATTTGATGTTAATCGGGTCTTGATTCGCTTGACGCTGCTG”, the binding signal in assay [1] is -1.4 z-score; in assay [2], 0.116 z-score; in assay [3], -0.615 z-score; in assay [4], 0.897 z-score; in assay [5], 0.325 z-score.
Take “CCGATTAACATCAGAAGCGGTAGTGATGTTAATCGGGTCTTGATTCGCTTGACGCTGCTG”: the binding signal in assay [1] is 0.129 z-score; in assay [2] it was 0.275 z-score; in assay [3], 0.83 z-score; in assay [4], 0.0916 z-score; in assay [5], -0.147 z-score.
For “CCGATTAACATCATCTGTTGTTTTGATGTTAATCGGGTCTTGATTCGCTTGACGCTGCTG”, the binding signal in assay [1] is -0.0683 z-score; in assay [2], -0.3 z-score; in assay [3], 0.125 z-score; in assay [4], 0.271 z-score; in assay [5], -0.33 z-score.
